± gives the standard deviation of the averaged measurements. The list shows a part of the results.
system: PfAP2-I AP2 domain 3 (GST-tagged); test: gcPBM binding intensity (ln(normalized median fluorescence intensity)); higher = stronger DNA binding
Procedure, shortened: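 In this array assay, P. falciparum DNA-binding domains with a GST tag, expressed in E. coli, were applied for 1 h to primer-extended double-stranded 36-bp intergenic genomic probes and negative controls on an Agilent 4 × 180k array. Bound protein was visualised with Alexa488 anti-GST antibody at 488 nm. Binding intensity is the highest Masliner-normalised natural-log median intensity across replicate spots of either probe orientation.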

Sequence | gcPBM binding intensity (ln)
TAAAATTTGCGATGCACACAGAATAGCTAATATGAC [CACACA_site2995] | 8.21 ± 0.69
TACTAAAACCCATACACACACATATTTATAGTACCA [CACACA_site7484] | 7.72 ± 0.44
AAATTCTGCATCGAGGTGCGCCATAAAAATTGTGGT | 9.195 ± 0.021
AGTTATTTTAAATGTAGTACACAAAAGAAATATTAA [XGTACX_site4092] | 8.425 ± 0.007
CATAAATTAAAACACACACACACAAAAAAAAAAAAA [CACACA_site2262] | 8.05 ± 0.55
ATATATTATGGGTGTGCACACAATATTTATATGTTC [CACACA_site2270] | 9.59 ± 0.23
TTATAATAAATATATAAAAAAAAAAAAAAAAAAAAA [CACACA_negctrl_site1639] | 8.16 ± 0.61
TTTTCTTATAAATGAAGTACAAAAAAAAAATATATA [XGTACX_site1352] | 8 ± 0.23
TGATAGCACCTTATATGTACATATAATATATTATTA [XGTACX_site837] | 8.855 ± 0.035
ACATATATGGAGCTTATACACACTTTTATATTTTAA [CACACA_site3854] | 7.7 ± 0.57
TTTTAAATATGCCATACACACTACTCTATAATAAAT [CACACA_site6987] | 7.87 ± 0.44
TTATCATATAATTATTGTACTAAAAAAAAAGCGAGT [XGTACX_site3086] | 8.24 ± 0.52
TATATATATATGTGTACACATGTCGCATTTTTTTAT [CACACA_site4648] | 9.34 ± 0.28
GATATTATAAAATAAAAATAAATCATTTCTATTCAT [CACACA_negctrl_site334] | 7.17 ± 0.5
TTATGTGTATAGGTTTGTACATAAAATGATGTATAG [XGTACX_site1401] | 7.85 ± 0.35
TAGTCATATATATATGTACACACATATATATATTTA [CACACA_site8413] | 7.56 ± 0.085
TCATGGAATATTTAAAGTACAAAAAGTGTTCTTTAC [XGTACX_site715] | 7.57 ± 0.59
ATATATATATATATATGTACATATATATATTATATT [XGTACX_site6303] | 9.38 ± 0.71
ACATTTAAATAATATGTGCACAGCTATATTTTCTTT [GTGCAC_site9562] | 9.92 ± 0.26
TTATGGTGCATGAAATCACACATTGATATATATGCT [CACACA_site5352] | 10 ± 0.45
GTGTCTTTTATTAAATGTACATATTCATAGATAAAA [XGTACX_site8578] | 8.14 ± 0.13
AATTGAGAAGTGTGTTGTACATAATGGCACATACCT [XGTACX_site1370] | 8.39 ± 0.59

Sequence | gcPBM binding intensity (ln)
ACCTTAAAAATAACTGCACACAAAAATAAATACCTT [CACACA_site8902] | 9.555 ± 0.007
ACGTAAACATGTAGAAGGCATTACACAATGGTATAC [TGCATGCA_negctrl_site512] | 7.92 ± 0.58
TAGAATGAAAAAAAAGCATGCGGGCAAAAATTTTTA [TGCATGCA_site926] | 8.05 ± 0.73
TTATTTTTTTGGAATTCACACACAAAAAAAAAAATA [CACACA_site8650] | 7.81 ± 0.37
ATGTGTATATATATGTGTACATAATTTGTGTTATTC [XGTACX_site2509] | 8.07 ± 0.4
TAATATGTTTATGGTAACATACAAAAATGTATATAT [GTGCAC_negctrl_site204] | 7.46 ± 0.52
TATTTTTTATTTTAAATCCTCTGATATTTAATTTGT [TGCATGCA_negctrl_site84] | 7.66 ± 0.61
TATCCCCTTGTCCATATTAATTGTGACATCATATAT [XGTACX_negctrl_site9] | 8.11 ± 0.81
AAGGTATAATATATTTGTACATATACATTTTTGAAT [XGTACX_site6493] | 7.59 ± 0.42
GATTTTAATGGGTGTACACATTTATTTATATAAAGT [CACACA_site5317] | 8.14 ± 0.42
TGAAAAATGTAATGCTCACACATATATATATATATA [CACACA_site5213] | 9.41 ± 0.24
TATTAATTTAAATGGGTGCAAAACCTATATAAATAT | 10.6 ± 0.55
AAAATGTCCCGTAGAAAATAAATTTATTACGCAATA [CACACA_negctrl_site1564] | 7.69 ± 0.54
ATTTATGTTAATAAGTGTACAATAAATTTTTTTTAT [XGTACX_site7658] | 7.75 ± 0.46
AACATATATAAATACACACACATATATATATGAAAT [CACACA_site4312] | 7.82 ± 0.38
ATATTTTATTTTAATACACACAAGTTATATAACCAC [CACACA_site6508] | 8.19 ± 0.48
TACATATATATATATGTACACACATTAATAAAAAAA [CACACA_site9058] | 8 ± 0.2
ATAACAAAAAAAAAGGTGCTACAAAATGAATAAAAA [GTGCAC_site9659] | 9.12 ± 0.3
AATATAAATAATTATACACACTTAATATATATATAC [CACACA_site5533] | 7.9 ± 0.33
TAGGTGCCTTTTTTCACACACATGTCAACTAAATAT [CACACA_site2656] | 9.29 ± 0.13
ATATTTAGGAAAAATAGTACACATTTAAATAATAAT [XGTACX_site7989] | 8.09 ± 0.53
CTTTAAATTAATAAAAGTACATTATTTATATATTTT [XGTACX_site4808] | 7.49 ± 0.23

From the supplement of paper PMC11417369
